# Experimental data reported in paper PMC4336329 (PLoS ONE, 2015).
# Among all 310,000 compounds or so, about 14,000 (4.5%) showed an effect of 50% or more. The effect is printed as a negative number. Some of the results follow. Where a SMILES comes first, the peptide text is derived from it. [ ]: non-standard residue; d: D form. pGlu = O=C1CC[CH](C(=O)O)N1
# Target: human ether-à-go-go-related gene (hERG) potassium channel (human, UniProt Q12809)
# Assay: primary screen, population patch clamp on CHO cells stably expressing hERG
# 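Note: peak tail current of the secondary pulse compared with the same well before compound.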
# Sequence of human ether-à-go-go-related gene (hERG) potassium channel (Q12809 whole entry, looked up): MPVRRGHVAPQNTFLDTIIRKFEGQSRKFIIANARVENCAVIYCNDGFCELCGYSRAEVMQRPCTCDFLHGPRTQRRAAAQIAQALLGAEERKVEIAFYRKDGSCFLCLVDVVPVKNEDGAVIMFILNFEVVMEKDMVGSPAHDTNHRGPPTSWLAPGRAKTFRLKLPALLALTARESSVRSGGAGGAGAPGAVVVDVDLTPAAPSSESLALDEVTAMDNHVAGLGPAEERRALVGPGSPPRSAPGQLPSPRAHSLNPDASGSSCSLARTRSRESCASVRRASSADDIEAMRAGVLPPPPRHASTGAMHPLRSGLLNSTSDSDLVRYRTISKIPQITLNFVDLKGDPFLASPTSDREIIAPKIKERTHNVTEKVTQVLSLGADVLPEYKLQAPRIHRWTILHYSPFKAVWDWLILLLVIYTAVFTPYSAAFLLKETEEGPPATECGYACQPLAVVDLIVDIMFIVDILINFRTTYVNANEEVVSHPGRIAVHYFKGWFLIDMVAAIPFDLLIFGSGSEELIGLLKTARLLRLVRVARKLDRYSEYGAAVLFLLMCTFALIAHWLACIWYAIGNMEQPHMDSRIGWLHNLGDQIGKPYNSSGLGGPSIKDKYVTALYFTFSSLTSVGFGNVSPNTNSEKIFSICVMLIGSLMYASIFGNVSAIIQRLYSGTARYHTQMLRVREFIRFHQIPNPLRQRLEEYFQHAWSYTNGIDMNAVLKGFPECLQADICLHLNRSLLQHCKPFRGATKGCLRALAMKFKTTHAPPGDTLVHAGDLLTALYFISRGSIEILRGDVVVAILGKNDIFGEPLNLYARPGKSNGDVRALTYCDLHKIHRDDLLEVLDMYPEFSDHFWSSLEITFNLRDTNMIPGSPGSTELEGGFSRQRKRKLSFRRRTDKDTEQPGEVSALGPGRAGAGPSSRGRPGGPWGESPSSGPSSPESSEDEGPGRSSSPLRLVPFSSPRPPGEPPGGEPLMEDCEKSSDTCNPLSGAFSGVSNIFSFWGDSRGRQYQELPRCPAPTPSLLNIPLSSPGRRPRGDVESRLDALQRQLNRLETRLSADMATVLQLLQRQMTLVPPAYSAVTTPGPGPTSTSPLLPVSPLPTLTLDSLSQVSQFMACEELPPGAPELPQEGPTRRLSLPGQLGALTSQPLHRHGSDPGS
row,SMILES,"hERG current change (%, negative = inhibition) at 10uM"
1,COC(=O)c1c(-c2ccco2)csc1NC(=O)C1CC=CCC1C(=O)O (stereo not shown),8.18%
2,COc1ccc(CCNC(=O)c2ccc(N(C)S(=O)(=O)c3ccccc3)cc2)cc1,-17.1%
3,CCN(CC)CCNC(=O)C1c2cc(OC)c(OC)cc2C(=O)N2CCc3ccccc3C12 (stereo not shown),3.4%
4,CCSc1nc(-c2ccc(OC)cc2)ccc1C#N,1.72%
5,COc1ccc(CCNC(=O)Cc2ccccc2)cc1OC,16.9%
6,O=C(NCCCN1CCN(Cc2ccccc2)CC1)c1nnc(Cc2c(F)cccc2Cl)o1,-63.1%
7,CC(=O)c1cccc(NC(=O)C(C)OC(=O)c2ccc3ncsc3c2)c1 (stereo not shown),-21.9%
8,CCCCn1c(SCC(N)=O)nc2ccc(N3CCOCC3)cc2c1=O,-38.7%
9,CCC(C)NC(=O)c1[nH]c(C)c(C(=O)OC)c1C (stereo not shown),-18.9%
10,COc1ccc(NC(C)C(=O)N/N=C/c2cc(Br)ccc2OC)cc1 (stereo not shown),6.81%
11,CS(=O)(=O)N1N=C(c2ccco2)CC1c1ccc(Cl)cc1 (stereo not shown),-7.35%
12,Cc1cc(Nc2cccc(O)c2)c2ccccc2n1.Cl,-64.2%
13,O=C(O)C1C2CCC(O2)C1C(=O)Nc1ccc(OC(F)F)cc1 (stereo not shown),9.23%
14,CC(OC(=O)c1c[nH]c2ccccc12)C(=O)N1CCCC1 (stereo not shown),9.99%
15,O=C(Nc1c(F)cccc1F)C1CCN(C(=O)c2cccs2)CC1,17.8%
16,COc1cccc(OC)c1C(=O)Nc1ccc(N2CCN(S(C)(=O)=O)CC2)cc1,7.69%
17,Cc1ccc(-n2c(=O)[nH]cc(C(=O)Nc3ccc4c(c3)OCO4)c2=O)cc1C,-5.13%
18,COc1cc(C2Nc3cccc4cccc(c34)N2)cc(OC)c1OC(C)=O,9.54%
19,CCOc1ccc(C(=O)Nc2ccc(CN3CCOCC3)cc2)cc1Cl,-56%
20,CC(OC(=O)CN(C)S(=O)(=O)c1ccc(Cl)cc1)C(=O)Nc1cccc(Cl)c1 (stereo not shown),4.29%
21,Cc1ccc(C(=O)NCC(=O)NCC(=O)OCC(=O)c2ccc([N+](=O)[O-])cc2)cc1,4.79%
22,CC1=C(C#N)C(c2ccc3ncccc3c2)C(C#N)=C(C)N1,7.71%

row,SMILES,"hERG current change (%, negative = inhibition) at 10uM"
1,CCOc1ccc(C(=O)N2CCN=C2SC)cc1OCC,10.9%
2,COc1ccc(-n2c(=S)[nH]c3c(oc4ccccc43)c2=O)cc1,10.5%
3,O=C(Nc1ccccc1)C1CCN(C(=O)c2ccc(Br)cc2)CC1,-59.3%
4,Cc1cc(N2C(=O)C3CCCN3C2c2sccc2C)no1 (stereo not shown),12.5%
5,COC(=O)C(Cc1cnc[nH]1)NC(=O)C1CCC(=O)N1 (stereo not shown) ([pGlu]-His-OMe; configuration not given here),47.5%
6,CN(C1CCCCC1)S(=O)(=O)c1cc2c(cc1Cl)NC(=O)CO2,-19.2%
7,CC(C)CCn1c(=O)c2ccccc2n2c(CCC(=O)NC3CCN(Cc4ccccc4)CC3)nnc12,-49.6%
8,Cc1ccc(C(=O)Cn2nnc3ccccc32)cc1[N+](=O)[O-],5.7%
9,O=C(NCc1ccccc1)C1CCCN(S(=O)(=O)c2ccc(F)cc2)C1 (stereo not shown),-7.42%
10,COc1ccc2c(c1)CCc1c(C(=O)N3CCCC3)noc1-2,-7.79%
11,CCN(CC(=O)Nc1ccccc1C(F)(F)F)C(=O)c1ccccc1Sc1ccccc1C#N,4.62%
12,CCC(C)(C)NC(=O)COc1ccc(C(=O)c2ccccc2)cc1,-28.2%
13,CCOC(=O)c1cnn(-c2ccccc2)c1-n1cccc1C(=O)C(=O)N(C)C,-4.57%
14,COc1cc(C(=O)NCCCCCC(=O)O)cc(OC)c1OC,-22.1%
15,Cc1ccccc1OCC1CNC(=O)O1 (stereo not shown),20.5%
16,O=c1c2ccccc2c2c(O)nc(-c3ccccc3)n2n1Cc1ccccc1,11.2%
17,COc1ccc(CN2C(=NC(=O)C3CC3)SC3CS(=O)(=O)CC32)cc1 (stereo not shown),8.08%
18,CN1CCN(CCOc2ccc(Cc3ccccc3)cc2)CC1.Cl,-23.4%
19,Cc1c(NC(=O)CSc2nnc(N)s2)c(=O)n(-c2ccccc2)n1C,-10.4%
20,CCOc1ccc(NC(=O)C(C)O)c(NS(=O)(=O)c2ccc(CCNC(C)=O)cc2)c1 (stereo not shown),10.7%
21,CCC/C=N/Nc1nc2ccccc2s1,-6.12%
